In PubChem BioAssay AID485294 (National Center for Advancing Translational Sciences (NCATS), 2010):
The whole screen tested about 370,000 compounds, of which about 150 (0.041%) were called active. This list was built around the results that the source calls inconclusive (neither active nor inactive); the mix of calls is not that of the screen. The call rests on the fitted dose curve; in most records, active means well fitted inhibition curve with a large enough effect; inconclusive means small, poorly fitted or top-dose-only effect; inactive means flat fitted curve, though single readings scatter. Potencies of inconclusive entries are left out as doubtful fits.

Biological target: Beta-lactamase (Escherichia coli (strain K12)) (UniProt P00811)
Assay: qHTS Inhibitors of AmpC Beta-Lactamase (assay with detergent); further: nearly all actives have a fitted effect of over 25% in size;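 on activity change, negative = inhibition: 0% = no-compound wells and -100% = no-enzyme wells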
Conditions: AmpC hydrolysis of nitrocefin, absorbance 480 nm, 0.01% Triton; activity change, negative = inhibition: at 114 µM (top of the series)
Summary of the method: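 20 mM phosphate pH 7.0 + 0.01% (detergent screen) or 0.0001% Triton X-100; 5.3 nM AmpC reagent; cpd preinc 15 min RT; nitrocefin (800 uM stock) to start; A480 q20 s × 4 min; Activity was normalised to no-enzyme and no-compound control wells.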
Potency means the concentration at half of the fitted maximal effect; tags describe the fitted curve by direction and shape.

UniProt P00811, sequence (P00811 whole entry, looked up): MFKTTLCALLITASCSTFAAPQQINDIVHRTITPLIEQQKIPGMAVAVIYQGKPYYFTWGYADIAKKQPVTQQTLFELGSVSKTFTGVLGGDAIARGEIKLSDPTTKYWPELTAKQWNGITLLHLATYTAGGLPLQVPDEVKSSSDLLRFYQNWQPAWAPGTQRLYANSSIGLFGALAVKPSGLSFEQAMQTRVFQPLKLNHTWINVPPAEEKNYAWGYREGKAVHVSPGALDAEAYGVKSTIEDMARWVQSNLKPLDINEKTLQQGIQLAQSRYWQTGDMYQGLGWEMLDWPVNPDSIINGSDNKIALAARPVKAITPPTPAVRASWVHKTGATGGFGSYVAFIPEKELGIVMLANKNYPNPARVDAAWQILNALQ

| Compound | Potency | activity change, negative = inhibition |
| --- | --- | --- |
| CSc1nc(-c2ccccc2)nc(C(Cl)Cl)n1 | inconclusive [inhibitor, full curve] | – |
| COc1ccc(S(=O)(=O)NN(C)C)cc1N(C)S(=O)(=O)c1ccc(Cl)cc1 | inconclusive [inhibitor, single point] | – |
| CCC(NC(=O)Nc1ncccc1C)(C(F)(F)F)C(F)(F)F | – | inactive: -14.9% |
| S=C(NCc1ccc2c(c1)OCO2)NC1CCN(Cc2ccccc2)CC1 | – | inactive: -8.53% |
| COC(=O)c1cc(C(=O)NCc2ccc3c(c2)OCO3)cc([N+](=O)[O-])c1 | inconclusive [inhibitor, full curve] | – |
| CC(C(=O)NN)n1nnc(N2CCOCC2)n1 (stereo unspecified) | – | inactive: -3.61% |
| CCCCC(=O)Nc1ccc(C(=O)Nc2ccc(S(=O)(=O)N3CCCC3)cc2)cc1 | inconclusive [inhibitor, single point] | – |
| CCc1cccc(C)c1NC(=O)COC(=O)CC1CCCC1 | inconclusive [inhibitor, full curve, poor fit] | – |
| Cc1cc(-c2ccccc2)nc2cc(C(=O)N(Cc3ccccc3)Cc3ccccc3)nn12 | inconclusive [inhibitor, partial curve, poor fit] | – |
| O=C(COc1ccc(Br)cc1)Nc1ccc(CN2CCOCC2)cc1 | inconclusive [inhibitor, single point] | – |
| Cc1ccccc1C(=O)N=c1c(C#N)cc2c(=O)n3cccc(C)c3nc2n1Cc1ccco1 | – | inactive: -3.11% |
| COc1cccc(NC(=O)C(OC(=O)c2cnc(C)cn2)c2ccccc2)c1 (stereo unspecified) | – | inactive: 0% |
| N#CCSc1nnc(COc2cccc3ccccc23)n1-c1ccccc1 | – | inactive: -16.7% |
| COc1ccc(C(=O)/C=C/C(=O)N(CC(=O)NC2CCCCC2)Cc2cccs2)c(O)c1 | – | inactive: 0.401% |
| COc1ccc(N=CC2=C(O)c3ccccc3C2=O)cc1 | – | inactive: -9.11% |
| COC(=O)CSc1nc(-c2cccs2)ccc1C#N | inconclusive [inhibitor, partial curve, poor fit] | – |
| Cc1ccc(-c2nc(CS(=O)CC(=O)NCCN3CCCC3)c(C)o2)cc1 (stereo unspecified) | inconclusive [inhibitor, partial curve, poor fit] | – |
| CC(C)OCCCNC(=O)c1cc2c(-c3ccc(Cl)cc3)nn(C)c2s1 | – | inactive: 5.52% |
| Cc1ccc(NC(=O)c2c(C)oc3ccc(O)c(CN4CCCCCC4)c23)c(C)c1 | – | inactive: 18.7% |
| COc1ccc(CCNC(=O)CN(C)S(=O)(=O)c2cccs2)cc1OC | – | inactive: -1.38% |
| O=C(NCc1ccncc1)c1cc(C(=O)C2CC2)c[nH]1 | inconclusive [inhibitor, partial curve, poor fit] | – |
| O=c1oc2ccccc2c(Nc2ccc(O)cc2)c1[N+](=O)[O-] | inconclusive [inhibitor, full curve, poor fit] | – |
| Cc1nc(Cl)c(C(=O)Nc2cccc(F)c2)c(C)c1Cl | inconclusive [inhibitor, single point] | – |

| Compound | Potency | activity change, negative = inhibition |
| --- | --- | --- |
| Cc1c(C(=O)Nc2ccc3c(c2)CCC3)cccc1[N+](=O)[O-] | inconclusive [inhibitor, full curve, poor fit] | – |
| CCOC(=O)c1ccc(N2C(=O)c3n[nH]c(-c4cccs4)c3C2c2ccc(C(C)(C)C)cc2)cc1 (stereo unspecified) | – | inactive: -4.06% |
| CC1CCCN(C(=O)CSc2nnc3ccccn23)C1 (stereo unspecified) | inconclusive [inhibitor, single point] | – |
| CNC(=S)N/N=C/c1cn(CCOc2ccccc2OC)c2ccccc12 | inconclusive [inhibitor, partial curve] | – |
| COc1cc2c(cc1OC)CN(C(=O)CCc1c[nH]c3ccccc13)[C@H](C(=O)O)C2 | inconclusive [inhibitor, single point] | – |
| CCOc1ccc(NCC(=O)c2ccc(C)cc2)cc1 | – | inactive: -3.59% |
| CCOC(=O)C(Cc1ccccc1)C(=O)Nc1ccc(N(CC)CC)cc1 (stereo unspecified) | inconclusive [inhibitor, single point] | – |
| O=C(Cn1c(=O)n(-c2ccccc2)c(=O)c2sccc21)NCc1ccccc1 | inconclusive [inhibitor, partial curve] | – |
| O=C(Cc1cccs1)Nn1c(Cc2cccs2)nc2ccccc2c1=O | inconclusive [inhibitor, full curve, poor fit] | – |
| Cn1nnnc1SCc1c(F)cccc1F | inconclusive [inhibitor, full curve] | – |
| COc1cc(C)c(C(=O)Oc2cc(C)c(C(=O)O)c(O)c2)c(O)c1 | – | inactive: 3.75% |
| Cc1cccc(C)c1Nc1sc(C(=O)c2ccccc2)c(N)c1C(=O)Nc1ccc(F)cc1 | – | inactive: 11.7% |
| Cc1ccc(S(=O)(=O)N(C)C)cc1NC(=O)C(C)N(C)CCOc1ccc(Cl)cc1 (stereo unspecified) | inconclusive [inhibitor, single point] | – |
| CS(=O)(=O)N1CCc2cc(C(=O)Nc3ccccc3Cl)ccc21 | inconclusive [inhibitor, partial curve, poor fit] | – |
| CCc1nnc(NC(=O)CSc2nnc(-c3ccc(OC)cc3)n2C)s1 | inconclusive [inhibitor, full curve] | – |
| CCCC[C@@H]1C[C@H]1[C@@H](NC(=O)c1cccs1)c1ccc(Cl)cc1 | inconclusive [inhibitor, full curve, poor fit] | – |
| O=C1OCCC1(c1ccccc1)c1ccccc1 | – | inactive: -4.08% |
| COc1ccc(CNCC(O)(c2ccc(F)cc2)c2ccc(F)cc2)cc1OC | – | inactive: -1.9% |
| O=C(O)CC(CC(=O)Nc1nncs1)c1ccccc1 (stereo unspecified) | inconclusive [inhibitor, single point] | – |
| CC1C2C(C)N(C)C(=O)N(C)C2N(C)C(=O)N1C (stereo unspecified) | inconclusive [inhibitor, partial curve, poor fit] | – |
| CC(=O)N/N=C(\C)CCc1ccccc1 | inconclusive [inhibitor, single point] | – |
| CCOC(=O)c1ccc(N2C(=O)CC(N3CCN(Cc4ccccc4)CC3)C2=O)cc1 (stereo unspecified) | inconclusive [inhibitor, full curve, poor fit] | – |
| CCCCNC(=O)CS(=O)Cc1nc(-c2cccs2)oc1C (stereo unspecified) | inconclusive [inhibitor, full curve] | – |
